# Test results from article PMC4336329 (PLoS ONE, 2015).
# Hit rate of the full screen: of about 310,000 compounds, about 2,200 (0.71%) showed an effect of 50% or more. Effects have a minus sign here. Some of the results follow.
# Target: human ether-à-go-go-related gene (hERG) potassium channel (human, UniProt Q12809)
# Experiment: primary screen, population patch clamp on CHO cells stably expressing hERG
# Sequence of human ether-à-go-go-related gene (hERG) potassium channel (Q12809 whole entry, looked up): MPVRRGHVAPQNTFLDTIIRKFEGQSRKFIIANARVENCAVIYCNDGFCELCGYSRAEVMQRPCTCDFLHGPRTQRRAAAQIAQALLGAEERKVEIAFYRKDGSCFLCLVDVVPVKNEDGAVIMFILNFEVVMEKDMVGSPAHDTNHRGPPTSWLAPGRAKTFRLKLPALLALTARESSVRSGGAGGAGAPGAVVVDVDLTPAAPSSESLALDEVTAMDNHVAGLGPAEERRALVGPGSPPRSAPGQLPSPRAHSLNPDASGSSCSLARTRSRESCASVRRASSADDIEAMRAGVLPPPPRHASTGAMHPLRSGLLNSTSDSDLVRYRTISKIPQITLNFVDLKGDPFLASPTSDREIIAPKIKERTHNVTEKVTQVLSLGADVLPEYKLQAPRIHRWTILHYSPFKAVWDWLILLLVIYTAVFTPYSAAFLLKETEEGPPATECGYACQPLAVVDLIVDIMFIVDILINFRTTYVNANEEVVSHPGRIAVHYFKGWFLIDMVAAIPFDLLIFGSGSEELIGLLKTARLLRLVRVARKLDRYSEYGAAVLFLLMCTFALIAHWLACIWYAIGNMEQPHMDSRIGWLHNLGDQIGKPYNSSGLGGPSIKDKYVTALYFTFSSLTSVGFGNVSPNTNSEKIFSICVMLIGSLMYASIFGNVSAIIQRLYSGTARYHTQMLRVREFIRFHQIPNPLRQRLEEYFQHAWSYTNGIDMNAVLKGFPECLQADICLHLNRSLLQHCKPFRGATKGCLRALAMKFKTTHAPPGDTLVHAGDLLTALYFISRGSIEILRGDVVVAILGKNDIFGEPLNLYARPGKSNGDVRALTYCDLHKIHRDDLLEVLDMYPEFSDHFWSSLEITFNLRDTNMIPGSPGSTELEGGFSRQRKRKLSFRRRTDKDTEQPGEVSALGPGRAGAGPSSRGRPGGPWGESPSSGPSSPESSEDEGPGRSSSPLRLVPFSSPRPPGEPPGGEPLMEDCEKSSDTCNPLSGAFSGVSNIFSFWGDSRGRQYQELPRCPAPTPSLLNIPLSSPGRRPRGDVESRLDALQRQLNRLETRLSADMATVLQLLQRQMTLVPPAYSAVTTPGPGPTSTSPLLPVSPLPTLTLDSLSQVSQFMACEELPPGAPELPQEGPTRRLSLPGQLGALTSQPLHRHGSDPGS
row,Compound,"hERG current change (%, negative = inhibition) at 1uM [%]"
1,C[C@@]12C(=O)Nc3cc(Cl)ccc3C(=O)N1[C@H]1c3ccccc3OC[C@@H]1[C@@H]2c1ccccc1,19.3
2,O=C(O)Cc1ccc(C(=O)c2ccc(Cl)cc2)s1,19
3,Cc1nn2c3cc(N4CCOCC4)ccc3nc2c2ccccc12,16.1
4,CCOc1ccc(Br)cc1S(=O)(=O)Nc1ccc(C(=O)OCC(=O)Nc2ccc(C#N)cc2)cc1,4.04
5,CN(C)CC(O)COc1ccc(-c2ccc(C#N)cc2)cc1 (stereo not drawn),-6.93
6,CCOC(=O)c1csc(NC(=O)c2ccc(S(=O)(=O)N3CCCC3)cc2)n1,16.5
7,CC(NC(=O)CN1CCN(c2cccc(Cl)c2)CC1)c1ccccc1 (stereo not drawn),16.3
8,CCC1CCC(N2CCN(c3ccc(F)cc3)CC2)CC1 (stereo not drawn),-2.92
9,COc1cccc2cc(-c3ccnc(N)n3)oc12,6.49
10,O=C(O)c1cc(S(=O)(=O)N2CCOCC2)ccc1N1CCOCC1,9.34
11,CCN(CC)C(=O)Cn1c(C)c(/C=C/c2cc[n+](C)cc2)c2ccccc21.[I-],8.59
12,CCn1c(CNC(=O)C23CC4CC(CC(C4)C2)C3)nnc1SCC(=O)Nc1nnc(C)s1,12
13,CCc1ccc(NC(=O)CSc2nc(N)c(NC(=O)c3ccc(F)c(F)c3)c(=O)[nH]2)cc1,18.6
14,O=C(O)CC1SC(=Nc2ccc(O)cc2)NC1=O (stereo not drawn),7.03
15,COc1ccc(OCCCC(=O)Nc2cccc([N+](=O)[O-])c2C)cc1,14.1
16,Fc1ccc(CNc2ccccn2)cc1,7.98
17,Cc1ccccc1NC(=O)CSc1nnc(C)c(=O)[nH]1,2.74
18,N#CC1=C(N)NC(SCC(=O)c2ccccc2)=C(C#N)C12CCCC2,-0.805
19,Cc1cc(/C=C2\NC(=O)NC2=O)c(C)n1-c1cccnc1,11.4

row,Compound,"hERG current change (%, negative = inhibition) at 1uM [%]"
1,CCCc1ncc(C(O)c2cccc(OC)c2)n1C (stereo not drawn),5.51
2,O=C(NC(Nc1nc2ccc([N+](=O)[O-])cc2s1)(C(F)(F)F)C(F)(F)F)c1cccnc1,-4.57
3,COc1ccccc1S(=O)(=O)Cc1ccc(C(=O)NC(C)c2ccc3c(c2)OCCO3)o1 (stereo not drawn),3.44
4,COc1ccc(OC)c(N2C(=NC(=O)C3CCCCC3)SC3CS(=O)(=O)CC32)c1 (stereo not drawn),-1.02
5,c1cncc(CNc2c3c(nc4nnnn24)CCCC3)c1,2.98
6,COc1cc(/C=N/NC(=O)c2sc(N)c(C#N)c2C)ccc1O,-2.05
7,Cc1ccc2cccc(OCCCOc3ccccc3F)c2n1.O=C(O)C(=O)O,21.4
8,CCOc1cc(-c2c(C)c(CC)nc(N)c2C#N)ccc1O,-8.01
9,COc1ccc(/C=C/C(=O)Nc2ccncc2)cc1OC,15.1
10,CNC(=S)N/N=C/c1c(Cl)cccc1Cl,9.97
11,Cc1ccc(OC(C)C(=O)N(C)c2ccccc2)c([N+](=O)[O-])n1 (stereo not drawn),7.8
12,O=C(COc1ccccc1F)Nc1nnc(-c2ccncc2)s1,3.53
13,CSc1n[nH]c(-c2sccc2OCc2ccc(C)cc2)n1,7.77
14,CO/N=C/C(c1ccc(Cl)nc1)S(=O)(=O)c1ccccc1 (stereo not drawn),10.2
15,CS(=O)(=O)NN1C(=O)c2ccccc2NC1c1ccccc1O (stereo not drawn),15.8
16,CCN(C(=O)COC(=O)c1ccc2c(=O)n3c(nc2c1)CCC3)C1CCS(=O)(=O)C1 (stereo not drawn),6.99
17,CCN(CC)C(=O)c1ccc(NC(=O)C2=C(C)OCCS2)cc1,23.5
18,CCCOC1CCCN(C(=O)c2ccc(OC3CCN(C(=O)COC)CC3)cc2)C1 (stereo not drawn),18.4
19,N#CC1=C(N2CCOCC2)/C(=C\c2ccccc2)CC1,5.07

row,Compound,"hERG current change (%, negative = inhibition) at 1uM [%]"
1,O=C(NCC1CCCO1)c1ccc2c(c1)N(Cc1ccc(F)cc1Cl)C(=O)CS2 (stereo not drawn),10.1
2,CC(C)NC(=O)c1cnc(Sc2ncc(C(F)(F)F)cc2Cl)n1C,12
3,CS(=O)(=O)N1CCN(c2ccccc2NC(=O)c2ccc3c(c2)OCCO3)CC1,9.09
4,O=C(NCCSCc1ccc(Cl)cc1)c1cccs1,3.48
5,Cc1ccc(-n2nc3c(N4CCC(C(=O)N5CCN(C)CC5)CC4)nnc(C)c3c2C)cc1,14.2
6,CCN(CC)S(=O)(=O)c1ccc(NC(=O)c2cc(=O)[nH]c3ccccc23)cc1,14.8
7,Cc1ccc([N+](=O)[O-])cc1N=C(c1ccc([N+](=O)[O-])cc1)N1CCOCC1,-1.45
8,COc1ccc(-n2c(O)c(C(C)=NCc3ccc4c(c3)OCO4)c(=O)[nH]c2=O)cc1,9.4
9,Cc1nc(CNS(=O)(=O)c2ccc(F)cc2)cs1,13.2
10,O=C(NC(=S)N1CCc2ccccc21)c1ccco1,8.55
11,Cc1csc(SCc2nnc(-c3ccccc3Br)o2)n1,2.27
12,Cc1ccc(C)c(NC(=O)CSc2nc3ccccc3nc2N2CCOCC2)c1,19.2
13,CCN1CCN(CCCNC(=O)C2CCCN(c3nnc(-n4cccc4)s3)C2)CC1 (stereo not drawn),10.8
14,CC(C)(C)NC(=O)CSc1nc(O)cc(=O)n1-c1ccccc1F,3.77
15,COc1ccc(CN2CCCC(C(=O)c3ccc(Cl)cc3)C2)c(OC)c1 (stereo not drawn),-53.6
16,Cc1[nH]c2ccccc2c1C(=O)CN1C(=O)NC2(CCCCCC2)C1=O,7.2
17,CCOC(=O)c1c(NC(=O)C(=O)N/N=C/c2ccccc2OC)sc2c1CCCCC2,-7.14
18,Cn1c(Cc2cccc3ccccc23)nnc1SCC(=O)N1CCN(c2cccc(Cl)c2)CC1,1.92
19,Cc1ccc(OCC(=O)Nc2nc(C)c(Cl)cc2Cl)c([N+](=O)[O-])n1,7.99
